According to PubChem BioAssay AID686978 (National Center for Advancing Translational Sciences (NCATS), 2013):
The campaign covered roughly 420,000 compounds. About 64,000 (15%) were called active. This list was built around the results that the source calls inconclusive (neither active nor inactive); the mix of calls is not that of the screen. Calls follow the shape of the dose curve; as a rule, active = well fitted inhibition curve with a large enough effect; inconclusive = small, poorly fitted or top-dose-only effect; inactive = flat fitted curve, though single readings scatter. No potency is given beside an inconclusive call; the fits are too rough.
Potency is read from the fitted curve at half-maximal effect; tags tell the direction and shape of the fitted curve.

Assay: qHTS for Inhibitors of human tyrosyl-DNA phosphodiesterase 1 (TDP1): qHTS in cells in absence of CPT; also: nearly all actives have a fitted effect of over 55% in size
Conditions: DT40 Tdp1-/- hTDP1 cells, no CPT, ATP luminescence, 48 h; series mostly up to 46.2 µM
How it was run: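 Growth kinetics read by CellTiter-Glo luminescence after ≥48 hr at 37 °C. Cells: DT40 Tdp1-/- stably carrying human TDP1, 400 per well, compound exposure in the absence of CPT (DMSO vehicle).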
With `COc1cccc(Cn2c(=O)c(-c3cc(F)cc(F)c3)nc3cnc(N4CCNCC4)nc32)c1` the Potency was inconclusive [inhibitor, single point].
In the case of `COc1ccc(-c2nc3cc(C(C)C)ccc3o2)cc1NC(=O)COc1ccc(C)cc1C`, the Potency is reported as inconclusive [inhibitor, partial curve].
With `Cc1cc(=O)n(CC(=O)NCCN2CCOCC2)c2c1c(C)nn2-c1ccccc1` the Potency was “inactive”.
With `Cc1ccccc1-c1cncnc1N1CCNCC1` the Potency was “inactive”.
With `Cc1ccc2nccc(C(=O)N3CCCC(Nc4ccc(C)c(C)c4)C3)c2c1` (stereo not given) the Potency was inconclusive [inhibitor, single point].
With `O=c1[nH]c(NC2CCCCC2)c([N+](=O)[O-])c(=O)[nH]1` the Potency was “inactive”.
For `COc1ccc(CCNC(=S)NCc2cccs2)cc1OC`, the Potency was inconclusive [inhibitor, single point].
In the case of `CCNC(=O)c1ccc2nc(-c3ccccc3)c(-c3ccccc3)nc2c1`, the Potency is reported as active: 11.2 µM.
In the case of `CC(=O)c1sc2c(c1OC(=O)c1ccccc1)c(=O)n(-c1ccccc1)c(=S)n2-c1ccccc1`, the Potency is reported as inconclusive [inhibitor, single point].
With `COc1ccc(NC(=O)CSc2ncccc2C(=O)O)cc1OC` the Potency was “inactive”.
In the case of `COc1ccc(NC(=O)CCSc2nc(-c3ccco3)cc(C(F)(F)F)n2)cc1`, the Potency is reported as “inactive”.
For `Nc1nonc1C(=O)N/N=C/c1cc(Br)ccc1O`, the Potency was active: 1.46 µM.
With `C=CCC[C@@H](Cc1ccc(F)cc1)C(=O)OC[C@@H](NC(=O)[C@@H](CC=C)CC(=O)N[C@H](CO)Cc1ccccc1)C(C)(C)C` the Potency was active: 16.4 µM.
For `N/C(=N\OC(=O)COc1ccc(Cl)cc1Br)c1cccnc1`, the Potency was “inactive”.
For `COc1ccc(NC(=O)[C@H](C)NC(=O)[C@@H]2Cc3ccccc3CN2C(=O)OC(C)(C)C)cc1`, the Potency was inconclusive [inhibitor, single point].
For `O=C(Nc1ccccc1CC[N+](=O)[O-])N1CCN(c2ccccc2)CC1`, the Potency was inconclusive [inhibitor, single point].
With `Cc1ccc(C)c(Nc2ncnc3onc(C)c23)c1` the Potency was inconclusive [inhibitor, single point].
With `O=C(CSc1nc2ccccc2c(=O)n1-c1cccc(C(F)(F)F)c1)NC1CC1` the Potency was inconclusive [inhibitor, partial curve].
For `Nc1c(C(=O)c2cccs2)sc2nsc(SCCN3CCCCC3)c12`, the Potency was inconclusive [inhibitor, single point].
With `CC(C)Cn1cc(-c2cncc3nccn23)cn1` the Potency was “inactive”.
